# Measurements taken from the supplement of paper PMC11417369.
# ± gives the standard deviation of the averaged measurements. The list shows a part of the results.
# Test system: PfAP2-EXP AP2 domain (GST-tagged)
# Experiment: gcPBM binding intensity (ln(normalized median fluorescence intensity)); higher = stronger DNA binding
# Summary of the method: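 An Agilent 4 × 180k array carrying primer-extended double-stranded 36-bp intergenic genomic probes and negative controls received GST-tagged P. falciparum DNA-binding domains expressed in E. coli, about 25 μg on average, for 1 h. The binding buffer contained 1× PBS, 1% milk, 0.2 mg/ml BSA, 0.5% salmon testes DNA and 0.03% Triton X-100. Binding intensity is the top Masliner-normalised natural-log median intensity across replicate spots of either probe orientation, read after Alexa488 anti-GST antibody staining and a 488 nm scan.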
row,Sequence,gcPBM binding intensity (ln)
1,TAAAGGCAAACAAACACACACACATAAATACAGATA [CACACA_site5204],8.86 ± 0.5
2,ATATGCGTTTGCAAATGTACATATTATTTATATATA [XGTACX_site7128],9.15 ± 0.45
3,ATAATTCTTTTACTGTGTACATATTATCACTTATTT [XGTACX_site2456],9.04 ± 0.33
4,TGTAATTGTTTAAAGGGTACATATATCAGATGTCTT [XGTACX_site5877],8.34 ± 0.45
5,TGGAAACAATGACACACACACAAAAAAAAAAAAAAA [CACACA_site7494],8.24 ± 0.5
6,TTTTGTTTTTGTAGAGTGCATAAAGAAGATATGTAT,8.81 ± 0.25
7,TTATCTCTACAAAGTGCACACACGTAAAAACATATA [CACACA_site3957],9.08 ± 0.37
8,GTAGGGGAAAAAAAAACACACAAAAAACAACAGATC [CACACA_site1187],8.94 ± 0.55
9,TATAAATACTTAGAAACACACAAAAATATTTTATAA [CACACA_site7259],8.54 ± 0.46
10,AAAAATTAAAATATAACTAATTAATTTGTATTCATT [CACACA_negctrl_site1633],7.87 ± 0.34
11,ATAATAATATTTCTATGTACTTATTTTATGTATTAG [XGTACX_site1747],8.51 ± 0.4
12,AACACATACAGATATGCACACATTTTATTCCATTAT [CACACA_site5565],8.84 ± 0.34
13,TTTTTATATTTCAACATATCACAATTTTATATATCT [CACACA_negctrl_site178],8.45 ± 0.34
14,TATTTATAAATGAACACACACGCAATTTGAATCGAA [CACACA_site3371],8.92 ± 0.52
15,ATATATATATTATATGCACACTTATATTTCATTAGA [CACACA_site5439],9.29 ± 0.12
16,GAATATAAACCTATTACACACATCTATATGTACATT [CACACA_site1914],8.63 ± 0.41
17,CTATATCATTTTCTAGCACACACATTGTTATTACCT [CACACA_site8204],8.9 ± 0.39
18,ATTTTTTTTATTATTACACACATATAACAAAAAAAT [CACACA_site6934],8.48 ± 0.43
19,TTTTTTATGCTAACTTCTTTTTCCTTATAAAATTGG [TGCATGCA_negctrl_site598],8.68 ± 0.56
20,AAAAAGAAAAAATATATTCGTCTATTATAAACAATA [CACACA_negctrl_site648],8.16 ± 0.42
21,TAAATATTAACAATCGCACACATATTATTTTTCCAA [CACACA_site1626],8.31 ± 0.42
22,AAGGTAAACAGACACACACACATACAAAAAAAAAAA [CACACA_site3768],8.64 ± 0.47

row,Sequence,gcPBM binding intensity (ln)
1,GAATATATATTCATATGTACACAATTTATGTATTAT [XGTACX_site4719],8.58 ± 0.2
2,ATATAAATATAGTGTGCACACACATAATATATATAT [CACACA_site8713],9.38 ± 0.057
3,TATATTTTAAAATTATGTACATATATAGATAAATGT [XGTACX_site1349],8.56 ± 0.38
4,AAAATAAATTGTGAAGGTACACAAATTATTATGTGG [XGTACX_site4196],8.42 ± 0.33
5,ATATATATATATAATACACACATCATAAAATATGTA [CACACA_site2518],9.89 ± 0.18
6,AAATACAAAATTGTTACACACATATTAATTATGACA [CACACA_site476],8.29 ± 0.37
7,TATCATCATGTATGTACACACATACAGATATTATGT [CACACA_site4888],8.46 ± 0.28
8,TATATATATATATATATATATATATATATAATATTA [XGTACX_negctrl_site558],10.1 ± 0.42
9,AATCATATTTAGATTACACACAGTTTAAATATTTTA [CACACA_site1263],8.27 ± 0.42
10,TGTAATGTTTACAACACACAAATTATAAATACAAAA [CACACA_site5047],8.55 ± 0.4
11,TATTTAAATGGATGCACACATGCATTAAATAAAATA [CACACA_site3433],8.57 ± 0.11
12,TACAAACAGACATATACACACAAAAAAAAAATAAAA [CACACA_site2562],8.63 ± 0.54
13,TCGATATATAGACACACACACTTTTAATAATTAAAT [CACACA_site7726],8.55 ± 0.42
14,TTATGCAGATAAAAGAGTACATATTCGTTACATACA [XGTACX_site2849],8.56 ± 0.38
15,TTAGTAAATACATTTGCACACATTATTTTTTAACAT [CACACA_site5448],8.56 ± 0.2
16,TATATATTTTTTTCATGTACTTATTATATATATATA [XGTACX_site5321],9.58 ± 0.16
17,ATGAATATATATATTTGTACATATGTATATATATAT [XGTACX_site7527],9.71 ± 0.15
18,GGAAATATAAAATCATGTACATATGTATATATAATT [XGTACX_site5491],8.7 ± 0.33
19,AGTATAGATGTATACACACACCAAACGTTAAAAAAA [CACACA_site7443],8.71 ± 0.53
20,ATATGGCACATATGTACACACGTATAGATAATATTA [CACACA_site5162],8.88 ± 0.33
21,ACATACATTTTTAAATGTACATATATATATATATAT [XGTACX_site6751],10.2 ± 0.61
22,CCGATATAATGGAAAACACACAAAAGATATATATAT [CACACA_site2683],9.555 ± 0.064

row,Sequence,gcPBM binding intensity (ln)
1,TTTCAAAATTTTTATTTTAAATAAACATTTATAAAA [CACACA_negctrl_site1588],7.9 ± 0.37
2,ATTTATTTATTTATATGTACTTAAATGAAAGGAATA [XGTACX_site6024],8.52 ± 0.24
3,AATATTATATGGACGTGTCCACATAAACCTATATAT [XGTACX_site2053],8.51 ± 0.39
4,ATATAAAAAAATTGCACACATAAATATATACATATA [CACACA_site1218],8.3 ± 0.37
5,TTTATGTACAGACATATACACACCTCTATAATATAT [CACACA_site730],8.78 ± 0.35
6,TCACAAAAAGAACATTGATATTATTATAAAATCGTC [GTGCAC_negctrl_site177],8.34 ± 0.38
7,GATACATAGAAACACACACACATACATATATACATA [CACACA_site3438],8.68 ± 0.51
8,TATTGTAATATTATATATATCTATTATGTATATAAA [CACACA_negctrl_site454],8.12 ± 0.35
9,AATTATATATTAAAAAGTACAAGTTAATATAATATA [XGTACX_site2737],8.62 ± 0.42
10,ATTAATAATCGAAAGGTGCACTTTGATTTGATAACA,10.2 ± 1.7
11,TTATTATTTTATCGTAGTACACCTAAATTATAAAAC [XGTACX_site5251],8.56 ± 0.32
12,TAATTAAAATTATTTATAAATTAGTATATTTCTATA [CACACA_negctrl_site663],7.94 ± 0.28
13,TTACAAAAATTTTGTTCACACATAAAAATATGTTAC [CACACA_site5740],8.31 ± 0.4
14,TAATAAATTATTTTTTATTATTTTAATAACACTTCA [CACACA_negctrl_site3],7.95 ± 0.28
15,ATATATTTTTCAAAATGTACAAATAATTAAATACCA [XGTACX_site875],8.45 ± 0.31
16,TGGTATTTTGATGATAAAAGGAAATTTTTTTTATAC [XGTACX_negctrl_site111],8.27 ± 0.32
17,GTTAGCATATTAAGTTGTACACAATTATTCTTCAAT [XGTACX_site8324],8.68 ± 0.34
18,AACAAAGAAAATACATGTACAAAAAATATTAACGAA [XGTACX_site287],9.2 ± 0.42
19,AATATAATATAATGCACACATAAACAAAAAAAAAAA [CACACA_site783],8.62 ± 0.33
20,ATTTATGAAAGAAATAGTACACACATAAACATTTGT [XGTACX_site5862],8.7 ± 0.47
21,TATATAAAATATTAATGTACATATAAATATATATAT [XGTACX_site6656],9.34 ± 0.26
22,GTAATTAAAATATATACACACAAAGGCTATTAAATA [CACACA_site1011],8.54 ± 0.36

row,Sequence,gcPBM binding intensity (ln)
1,TTTAATACGAATGAGGCACACACCTAGTATACATGC [CACACA_site621],8.75 ± 0.4
2,CAAAATAATATATATACACACACACCGATATATATA [CACACA_site8082],8.71 ± 0.52
3,TTTAATTTTTTTAAAACACACAAATATATATATATA [CACACA_site3898],10.06 ± 0.085
4,TTATTTTTGTGTAAGGTGCTATATATAATGTTTTTA,8.68 ± 0.38
5,AAAAAGGATAAACACACACACACACCGATATATATA [CACACA_site8206],8.86 ± 0.61
6,AACGAAATCATCAAGTGTACTAGTTTATTATTAATA [XGTACX_site6161],8.38 ± 0.42
7,AAATGTGATATAAGTACACACACATATGTATATATA [CACACA_site8539],8.62 ± 0.35
8,TATGTATATTATATGACACACATTTATATATATATA [CACACA_site1167],9.8 ± 0.27
9,TTTTGTTGATTTATATCTGTAGGGTTTAATATAACA [XGTACX_negctrl_site174],8.29 ± 0.47
10,AATAAATAAATAAATATATATATATATATATATATG [CACACA_negctrl_site899],8.655 ± 0.064
11,AAAATAAAATAAAACACAAAAAAATAAAACAAAATA [CACACA_negctrl_site16],8.71 ± 0.47
12,AAATAAAATATATACATATATATATTATTTAGTAAT [XGTACX_negctrl_site375],8.05 ± 0.45
13,AAATATGTTTATATATGTACTTATAATTCAAAATAT [XGTACX_site2167],8.11 ± 0.23
14,TATATATCCATGTGTACACACAAAAAAAAATAAAGT [CACACA_site7107],9.02 ± 0.38
15,TCTATGCGTTTTAATAGTACATATAAAATTTATACA [XGTACX_site6986],8.47 ± 0.3
16,TAATTAACAAACTATAGTACACAAAATACTTCATAT [XGTACX_site6375],8.66 ± 0.34
17,ATATACACACATAAGTGTACTTATATTTCATATATA [XGTACX_site8646],8.39 ± 0.35
18,CCATGTCACAATTTTTCACACACAAAATTTATATAC [CACACA_site8628],8.82 ± 0.42
19,TTAACTATGAATACATGTACATGAAAATATTTCAAT [XGTACX_site1069],8.89 ± 0.22
20,AAATTAATAAAAAATGGTACACAAAATGGATGTATA [XGTACX_site1561],8.76 ± 0.36
21,AAAATTAAACAAAGTTGTACAAAATAATAATAAAAG [XGTACX_site7515],8.95 ± 0.34
22,GGCAAATTTATTATACCCACATACATACATACATAC [XGTACX_negctrl_site186],9.42 ± 0.042
